From the supplement of paper PMC12632987
In all, about 2,300 sequences were measured (“median log2 fold change of GCK-ALFA target abundance (FLAG IP / Myc IP barcode read proportion)”: median about 0.095, lowest 2% from about -0.47 on). The list shows a part of the results.

B1: LC3A_3_1508 (protein)
chain: KEELLKELREILEKMGASEEVIEAFLEAAERLLARGYEEAAKTFLELVKEMKDLSNEHLLAFAEEVLALLDAGGLSEEELIERIKEIARTTRADAEIEEL
B2: LC3A_141_365 (protein)
chain: MVVELKYEFEADTIEEAVEKMEEIEKDVLEKAKEANAKTAEIELKIEYTSKDGKEKKTIEIKDETTFENLELVLDGLLVEVASYASKGKVKVELKVKLKT
B3: LC3A_17_559 (protein)
chain: MEKLKKELEKLLKEAEKLIKELEKYDPEAAKELKELLEKAKKYLEEGKLKEALKTLKELAEKAADIWDSLEHIDPQKMSILSMEAEGLLIEAELLEDKLE
B4: LC3A_132_257 (protein)
chain: SEEKKKKFLEEAKALIDAVVAALKAGQDPSPYIKKLDELADRAAEELSLEELEELVEEAKAYADARFAEELDPNNPEARRARDIIEMILDSALIEAELRA
B5: LC3A_28_862 (protein)
chain: SATEESIKKAREELKEALAKGEPKVITVTVTEDVTDEEVDRVIALIDEAAEASKKVPGLALVIDFDGEIDPEKLQRILDRAEEAEARNPNLTVIFALDEK
B6: LC3A_3_1424 (protein)
chain: MEELEEEARRVLEEAGFSEEAIEAVLELVRKALEAGKEEEVKELIEVLKKAKNVSSEEVLEAAERALRLIEEEGVSMEEALEYFISELRVLIEEKEIIEL
B7: LC3A_28_1287 (protein)
chain: SEIEESIKKALEEAKKAVEKGESTVIEINVPGNATQEEIEKVIEALEEIAEILKDVPNQTIVINVGGGVPQEHIDKLLDKAEEIEKKYPNVTVIIALDEE
B8: LC3A_28_1133 (protein)
chain: SAAVAAAKAQIDADAAADKNEKEVFLTVNISGTVTVEEARAIMAHVAEVVEKLKDKERIDVVVNFEEPVSQEVLDTILDGGDELEEKFPNVNVYVALPEG

Each binder was assayed against MAP1LC3A, Q9H492 (assay: median log2 fold change of GCK-ALFA target abundance (FLAG IP / Myc IP barcode read proportion) (log2 ratio); each designed protein is fused to an ALFA-tag nanobody in HEK293 cells to bring the named protein to FLAG-tagged glucokinase (GCK); Myc marks an untargeted standard; higher = target protein stabilised (more abundant)). Conditions: target protein: 3xFLAG-MCP-GCK-ALFA reporter; HEK293 landing pad (RPLP).
Method in brief: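 HEK293 landing-pad cells received a recombined binder library fused to the ALFA nanobody and were induced with 2 μg mL^−1 doxycycline, then transfected with a plasmid encoding a FLAG-tagged target and a Myc-tagged standard. Lysates were collected after 48 h for anti-FLAG and anti-Myc immunoprecipitation, and the circular RNA barcodes were reverse transcribed, amplified and sequenced. Target abundance for each binder is the median log2 ratio of FLAG to Myc barcode read proportions. Barcodes had to reach a proportion of at least 10^−7 in both replicates, each binder needed at least 3 barcodes per replicate, a pseudocount of 10^−6 was applied, and the two replicates were pooled.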

With B1 as the binder, how does the “median log2 fold change” value read?
The value was 0.339.

How did the “median log2 fold change” value turn out when B2 was run?
Its value is 0.379.

B3 was tested. Which “median log2 fold change” value did it give?
The value was 0.00231.

How did the “median log2 fold change” value turn out when B4 was run?
Its value is 0.39.

For B5, which “median log2 fold change” value is on record?
The value was -8.58e-05.

How did the “median log2 fold change” value turn out when B6 was run?
Its value is 0.16.

B7 was tested. Which “median log2 fold change” value did it give?
Its value is -0.0742.

Which “median log2 fold change” value does the source give for B8 here?
The value was -0.076.
